# Assay results taken from PubChem BioAssay (Tox21).
# Several values for one entry are separate records, joined by “and”; a condition that tells them apart may be missing. Equal values may be shown once. Some compounds were tested as several samples or in several runs, with calls that do not always agree. Activity calls are given as the source filed them. Unless noted, calls follow the shape of the dose curve; as a rule, active = well fitted curve in the direction sought with a large enough effect in the repeat runs; inconclusive = weak or mixed curves; inactive = no such curve, though single readings can be large; an effect the other way counts as inactive or inconclusive.
# Tests used:
# [1] = qHTS assay to identify small molecule antagonists of the glucocorticoid receptor (GR) signaling pathway - cell viability counter screen (AID 720693); settings: GR-bla HeLa viability, CellTiter-Glo luminescence, 18 h, with 5 nM dexamethasone present; viability change, negative = cytotoxic: at 58.5 µM (top of the series) unless noted; also: nearly all actives have a fitted effect of over 55% in size
# [2] = qHTS assay to identify small molecule antagonists of the estrogen receptor alpha (ER-alpha) signaling pathway using the BG1 cell line - cell viability counter screen (AID 743081); settings: BG1Luc4E2 viability, CellTiter-Fluor, 22 h; activity change, negative = cytotoxicity: at 70.3 µM (top of the series) unless noted;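 also: compound given together with 17beta-estradiol as the ER stimulus; nearly all actives have a fitted effect of over 45% in size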
# [3] = qHTS assay for identifying genotoxic compounds that show differential cytotoxicity against isogenic chicken DT40 cell lines with known DNA damage response pathways - wild type cell line (AID 743012); settings: DT40 wild type chicken cells viability, CellTiter-Glo, 40 h; activity change, negative = cytotoxicity: at 68.4 µM (top of the series) unless noted; also: nearly all actives have a fitted effect of over 60% in size; as to activity change, negative = cytotoxicity: % is scaled to controls: 0 for no effect and ±100 for the full control effect
# In short: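 Endpoint: CellTiter-Glo luminescence, 30 min RT. Cells: wild type DT40, 300/well. Exposure: compounds in DMSO, 40 h, 37 C/5% CO2, after ~0.5 h pre-incubation.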
# [4] = qHTS assay for identifying genotoxic compounds that show differential cytotoxicity against isogenic chicken DT40 cell lines with known DNA damage response pathways - Rev3 mutant cell line (AID 743014); settings: chicken DT40 Rev3-/- viability, CellTiter-Glo, 40 h; activity, negative = cytotoxicity: at 68.4 µM (top of the series); also: nearly all actives have a fitted effect of over 55% in size
# [5] = qHTS assay for identifying genotoxic compounds that show differential cytotoxicity against isogenic chicken DT40 cell lines with known DNA damage response pathways - Rad54/Ku70 mutant cell line (AID 743015); settings: DT40 Rad54/Ku70 mutant viability, CellTiter-Glo, 40 h; activity change, negative = cytotoxicity: at 66.8 µM (top of the series); also: nearly all actives have a fitted effect of over 60% in size; as to activity change, negative = cytotoxicity: % is scaled to controls: 0 for no effect and ±100 for the full control effect
# [6] = qHTS assay to identify small molecule antagonists of the thyroid receptor (TR) signaling pathway (AID 743065); also: nearly all actives have a fitted effect of over 55% in size; as to activity, negative = inhibition: % is scaled to controls: 0 for no effect and ±100 for the full control effect
# In short: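 GH3.TRE-Luc rat pituitary cells carrying two TR response elements driving luciferase were plated for 4 h, given compound plus 1 nM T3 (final), and incubated 23.5 h at 37 C. ONE-Glo luminescence measured reporter inhibition; CellTiter-Fluor fluorescence tracked cytotoxicity.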
# [7] = qHTS assay to identify small molecule antagonists of the androgen receptor (AR) signaling pathway - cell viability counter screen (AID 743033; also: nearly all actives have a fitted effect of over 45% in size; as to activity change, negative = cytotoxicity: % is scaled to controls: 0 for no effect and ±100 for the full control effect); settings: AR-bla HEK293 viability, CellTiter-Glo luminescence, 16 h; activity change, negative = cytotoxicity: at 58.5 µM (top of the series) unless noted
# [8] = qHTS assay to identify small molecule antagonists of the androgen receptor (AR) signaling pathway using the MDA cell line - cell viability counter screen (AID 743041; also: nearly all actives have a fitted effect of over 45% in size); settings: MDA-kb2 viability, CellTiter-Fluor, 16 h, cells co-treated with R1881 androgen agonist; viability change, negative = cytotoxic: at 70.3 µM (top of the series) unless noted
# In short: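 qHTS viability read-out; MDA-kb2 AR-luc; R1881-stimulated; 16 h exposure at 37C, 0% CO2; CellTiter-Fluor, 30 min; fluorescence intensity.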
# [9] = qHTS assay to identify small molecule antagonists of the thyroid receptor (TR) signaling pathway - cell viability counter screen (AID 743064); settings: GH3.TRE-Luc viability, CellTiter-Fluor, 24 h; activity change, negative = cytotoxic: at 70.3 µM (top of the series) unless noted; also: nearly all actives have a fitted effect of over 50% in size
# In short: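 Same-well viability check: GH3.TRE-Luc cells stimulated with 1 nM T3 alongside test compound for 23.5 h, followed by CellTiter-Fluor fluorescence.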
# [10] = molecular target: Estrogen receptor (Homo sapiens) (UniProt P03372); test: qHTS assay to identify small molecule antagonists of the estrogen receptor alpha (ER-alpha) signaling pathway (AID 743069; active = well fitted curve in the direction sought with a large enough effect in the signal ratio in the repeat runs, not every such curve was filed as active; inconclusive = weak or mixed curves, or effect the other way; inactive = no such curve, though single readings can be large or run the other way; the % refers to the signal ratio); settings: HEK293 ER-alpha-UAS-bla, beta-lactamase ratio, antagonist mode; activity, negative = inhibition: at 69.4 µM (top of the series) unless noted
# Chain of UniProt P03372 (P03372 whole entry, looked up): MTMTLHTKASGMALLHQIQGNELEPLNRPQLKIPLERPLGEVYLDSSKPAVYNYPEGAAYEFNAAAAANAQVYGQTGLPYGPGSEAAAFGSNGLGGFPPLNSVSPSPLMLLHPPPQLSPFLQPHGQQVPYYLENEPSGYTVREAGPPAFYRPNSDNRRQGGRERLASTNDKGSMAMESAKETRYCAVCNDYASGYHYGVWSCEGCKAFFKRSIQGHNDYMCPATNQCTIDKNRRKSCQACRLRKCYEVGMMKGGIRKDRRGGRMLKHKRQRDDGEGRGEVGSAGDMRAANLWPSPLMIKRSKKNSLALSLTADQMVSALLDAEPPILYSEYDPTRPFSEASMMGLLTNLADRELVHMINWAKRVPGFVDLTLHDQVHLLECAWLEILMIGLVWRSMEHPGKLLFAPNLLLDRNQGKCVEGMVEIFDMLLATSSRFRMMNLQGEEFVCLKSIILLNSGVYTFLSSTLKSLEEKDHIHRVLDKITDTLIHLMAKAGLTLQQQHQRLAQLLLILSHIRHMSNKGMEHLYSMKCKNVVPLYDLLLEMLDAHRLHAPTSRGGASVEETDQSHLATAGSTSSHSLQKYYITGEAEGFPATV
# In short: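 Screening used a UAS-driven beta-lactamase reporter integrated into HEK293 cells expressing ER-alpha, stimulated with 17beta-estradiol alongside test compounds over 18 hr at 37C; signal came from LiveBLAzer B/G FRET fluorescence.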
# [11] = molecular target: Estrogen receptor (Homo sapiens) (UniProt P03372); test: qHTS assay to identify small molecule agonists of the estrogen receptor alpha (ER-alpha) signaling pathway (AID 743075; calls by dose curve)
# [12] = qHTS assay to identify small molecule antagonists of the estrogen receptor alpha (ER-alpha) signaling pathway - cell viability counter screen (AID 743074; calls by dose curve; also: nearly all actives have a fitted effect of over 45% in size)
# Potency is read from the fitted curve at half-maximal effect; tags tell the direction and shape of the fitted curve or compound fluorescence and quenching.
smiles,measurement,setting,value
C[C@H](CN1CCCC1)C(=O)c1ccc(C(F)(F)F)cc1,Potency,[1],"inconclusive: 0.213 µM [rising, full curve, poor fit]"
same,Potency,[2],"inconclusive: 18.8 µM [cytotoxic, single point]"
CCCC(C)C(=O)OCC (centres undefined),Potency,[3],inactive
CC(C)(C)C1CCC(=O)CC1,Potency,[3],"inconclusive: 68.6 µM [cytotoxic, single point]"
same,Potency,[4],"inconclusive: 61.1 µM [cytotoxic, single point]"
same,"activity change, negative = cytotoxicity",[5],inconclusive: -50.5% [cytotoxic]
OC[C@H]1O[C@@H]2O[C@H]3[C@H](O)[C@@H](O)[C@@H](O[C@H]4[C@H](O)[C@@H](O)[C@@H](O[C@H]5[C@H](O)[C@@H](O)[C@@H](O[C@H]6[C@H](O)[C@@H](O)[C@@H](O[C@H]7[C@H](O)[C@@H](O)[C@@H](O[C@H]8[C@H](O)[C@@H](O)[C@@H](O[C@H]1[C@H](O)[C@H]2O)O[C@@H]8CO)O[C@@H]7CO)O[C@@H]6CO)O[C@@H]5CO)O[C@@H]4CO)O[C@@H]3CO,Potency,[1],"inconclusive: 10.7 µM [rising, single point]"
same,Potency,[6],inactive
C#C[C@]1(O)CC[C@H]2[C@@H]3CCc4cc(OC)ccc4[C@H]3CC[C@@]21C,Potency,[3],active: 5.31 µM and active: 3.86 µM
same,Potency,[4],active: 5.96 µM and active: 4.86 µM
same,Potency,[5],active: 6.68 µM and active: 6.86 µM
same,Potency,[7],inconclusive: 0.7 nM [cytotoxic] and inactive
same,Potency,[8],"inconclusive: 27.3 µM [rising, partial curve, poor fit]"
same,Potency,[9],"inconclusive: 29.8 µM [cytotoxic, single point]"
same,Potency,[6],"inconclusive: 26.6 µM [inhibitor, partial curve] and inconclusive: 15.4 µM [inhibitor]"
same,Potency,[10],"inconclusive: 2.19 µM [activator, full curve]"
same,"activity, negative = inhibition",[10],inconclusive: 15.3%
same,Potency,[11],active: 19 nM [inconclusive] and active: 30.9 nM [inconclusive]
O=c1[nH]nc(-c2ccc([N+](=O)[O-])o2)o1,Potency,[3],"inconclusive: 77 µM [cytotoxic, single point]"
same,Potency,[4],active: 19.3 µM
same,Potency,[5],"inconclusive: 68.6 µM [cytotoxic, single point]"
same,Potency,[8],inconclusive: 68.6 µM [cytotoxic]
same,Potency,[9],"inconclusive: 61.1 µM [cytotoxic, partial curve]"
same,Potency,[10],"inconclusive: 49 µM [activator, partial curve]"
same,Potency,[2],"inconclusive: 68.6 µM [cytotoxic, single point]"
CC(=O)CC/C=C(\C)CCC=C(C)C,Potency,[3],"inconclusive: 48.6 µM [cytotoxic, partial curve, poor fit]"
same,Potency,[4],"inactive and inconclusive: 61.1 µM [cytotoxic, single point]"
same,Potency,[5],"inconclusive: 68.6 µM [cytotoxic, single point]"
same,Potency,[6],inactive
same,Potency,[12],"inconclusive: 1.1 µM [rising, full curve, poor fit]"
Nc1cccc(N)c1,Potency,[3],inactive
same,Potency,[4],"inconclusive: 54.5 µM [cytotoxic, partial curve]"
same,Potency,[5],"inconclusive: 76 µM [cytotoxic, partial curve, poor fit]"
same,Potency,[9],"inconclusive: 27 µM [rising, single point]"
